“And” between values parts separate entries of the source, which are not always exact repeats. Identical values can stand only once. The campaign covered roughly 280,000 compounds. About 2,600 (0.93%) were called active. Inconclusive results (about 8%) are left out. Calls follow the shape of the dose curve; as a rule, active = well fitted curve in the direction sought with a large enough effect; inconclusive = small, poorly fitted or top-dose-only effect; inactive = flat fitted curve, though single readings scatter. Only a part is listed here, and it is no random draw.

This is an account of results in PubChem BioAssay AID1463 (National Center for Advancing Translational Sciences (NCATS), 2008).
% is scaled to controls: 0 for no effect and ±100 for the full control effect; potency is read from the fitted curve at half-maximal effect; tags tell the direction and shape of the fitted curve or compound fluorescence and quenching.

The assay can be described thus: Counterscreen qHTS for Inhibitors of Tau Fibril Formation, Fluorescence Polarization. Also: nearly all actives have a fitted effect of over 55% in size. Particulars: tau K18 P301L (four-repeat tau fragment) Alexa594 fluorescence, heparin fibrillization; series mostly up to 57.7 µM; activity change, negative = decrease: at the top concentration. In a few lines: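 Human K18 P301L tau (15 uM unlabeled plus 0.24 uM Alexa 594-labeled, final) in 100 mM sodium acetate pH 7 was mixed with compound and 20 uM heparin and incubated 6 hr at 37 C.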
On the technique in general: A counterscreen serves to expose hits that act by an unwanted route or on another target.
Take `Nc1ccc(CCNc2ncnc3c2ncn3C2OC(CO)C(O)C2O)cc1` (configuration not stated): the “activity change, negative = decrease” value is inactive: -2.4%. Regarding `OC(CN1CCN(c2cccc(Cl)c2)CC1)C(c1ccccc1)c1ccccc1` (configuration not stated), the Potency result is “inactive”. As to `O=c1[nH]c(=O)n([C@H]2C[C@H](O)[C@@H](CO)O2)cc1Br`, the “activity change, negative = decrease” value was inactive: -6.87%. For the molecule `COc1cccc(Nc2nc(-c3cccc(N4C(=O)c5ccccc5C4=O)c3)cs2)c1`, the Potency was active: 7.94 µM [quencher]. On to `CC(=O)Nc1ccc(S(=O)(=O)N2CCN(c3nc(NC4CCCC4)c4ccccc4n3)CC2)cc1`, for which the Potency is active: 14.1 µM [quencher]. For the molecule `CO/N=C(/C(=O)NC1C(=O)N2C(C(=O)O)=C(CSc3nc(=O)c(O)nn3C)CSC12)c1csc(N)n1` (configuration not stated), the Potency entry is “inactive”. With `CC(Cc1ccc(O)c(O)c1)(NN)C(=O)O` (configuration not stated), the “activity change, negative = decrease” value was inactive: -23.8%. As to `Cc1ccc(C)c(NC(=O)CN(C)S(=O)(=O)c2cccc3cccnc23)c1`, the “activity change, negative = decrease” value was inactive: -5.38%. Same read-out and setting: next, `COCCN=C1OC(=O)N2C(=O)C3=C4[C@@H](C[C@H]5C(=O)N(c6ccccc6)C(=O)[C@H]5[C@H]4[C@@]12Cc1ccccc1)[C@H]1C(=O)N(c2ccccc2)C(=O)[C@H]1[C@H]3C`: inactive: -4.81%; `Cc1ccc(-c2cc(N)n(-c3ccc(C)cc3)n2)cc1`: inactive: -20.4%. As for `CN(Cc1cnc2nc(N)nc(N)c2n1)c1ccc(C(=O)N[C@@H](CCC(=O)O)C(=O)O)cc1`, the Potency result was “inactive”. Same read-out and setting: the figure for `COc1cccc(-c2nc(SCC(=O)Nc3ccc4c(c3)OCO4)c(-c3ccccc3)[nH]2)c1` is active: 7.94 µM [quencher]. Turning to `COc1ccc(Cl)cc1NC(=O)CCc1nc(-c2ccccc2F)no1`, the “activity change, negative = decrease” value is inactive: -25.2%. `CCCCC1=CC2=C(c3ccco3)C(=O)C(C)(OC(=O)c3ccc(OC)cc3)C(=O)C2=CN1CC1CC1` (configuration not stated): the activity change, negative = decrease was inactive: -6.8% [at 11.6 µM]. Regarding `Cn1cc(C(=O)NCc2ccc(F)cc2)c(=O)c2cc(S(=O)(=O)N3CCCCC3)ccc21`, the “activity change, negative = decrease” value is inactive: -27.1%. Take `CCOC(=O)C1CCN(c2nc(-c3ccc(Br)cc3)nc3ccccc23)CC1`: the “activity change, negative = decrease” value was inactive: -14.8%. As for `CC(C)c1ccc2c(c1)c(SC(C)(C)C)c(CC(C)(C)C(=O)O)n2Cc1ccc(Cl)cc1`, the “activity change, negative = decrease” value was inactive: -10.8%. Regarding `COc1cc(C)c(C(=O)Oc2cc(C)c(C(=O)O)c(O)c2C)c(OC)c1C`, the “activity change, negative = decrease” value was inactive: -7.31%. `O=C(Cn1c[n+](CC(=O)c2ccc([N+](=O)[O-])cc2)cn1)c1ccc([N+](=O)[O-])cc1`: the “activity change, negative = decrease” value was inactive: -23.1%. In the case of `O=C(COC(=O)CCc1c[nH]c2ccccc12)NC(c1ccccc1)c1ccccc1`, the Potency is active: 14.1 µM [quencher]. `COc1ccc(O)c(C2=Nc3ccccc3N=C(c3ccccc3)C2)c1`: the “activity change, negative = decrease” value was inactive: -29.6%.

Regarding `COc1cccc([C@@H]2Oc3ccc(OC)cc3C(=O)[C@H]2OC(=O)NCc2ccc3c(c2)OCO3)c1`, the “activity change, negative = decrease” value is inactive: -11.7%. Same read-out and setting: next, `COc1cc([C@@H]2Nc3c(F)cccc3[C@@H]3C=CC[C@@H]32)cc(Br)c1OC`: inactive: -15.9%.

`CCCOC(=O)c1ccc(Oc2cn[nH]c2-c2ccc(OC)cc2O)cc1`: the Potency is active: 11.2 µM [quencher]. With `O=C(NCc1nc2ccccc2[nH]1)C1=C[C@H](c2ccc(Br)cc2)C[C@H](OCc2ccc(CO)cc2)O1`, the “activity change, negative = decrease” value was inactive: -24.7%. As for `COc1ccc(-c2n[nH]c(=S)n2/N=C/C=C\c2ccccc2OC)cc1`, the “activity change, negative = decrease” value was inactive: -21%. `CCOC(=O)c1nc(Nc2ccc(C(=O)OC)cc2)c2ccccc2n1`: the “activity change, negative = decrease” value is inactive: -18.7%. For `CCN(CC)S(=O)(=O)c1ccc2[nH]cc(C(=O)NCCc3ccccc3)c(=O)c2c1`, the “activity change, negative = decrease” value is inactive: -27.8%. For `CCC1=C(OC(=O)N(CC)CC)N2C(=O)OC(=NCCc3c[nH]c4ccccc34)[C@]2(Cc2ccccc2)[C@H]2C1=CC[C@H]1C(=O)N(c3ccccc3)C(=O)[C@H]12`, the “activity change, negative = decrease” value was inactive: -10.9%. In the case of `Cc1ccc(CNC(=O)CSc2nc3n[nH]c(C)c3c(=N)n2-c2cccc(C)c2)cc1`, the “activity change, negative = decrease” value was inactive: -28%. As to `CC(=O)c1ccc(OCc2ccccc2)c(C)c1O`, the activity change, negative = decrease was inactive: -13.8% [at 11.6 µM]. Consider `CNCC(O)c1ccc(O)c(O)c1` (configuration not stated), for which the Potency result is “inactive”. In the case of `C[C@@H](C(=O)Nc1ccc2ccccc2c1)[C@H]1C[C@]1(C)[C@H](NS(=O)(=O)c1ccccc1)c1ccccc1`, the Potency result is “inactive”. `CCn1c(C)cc(/C=C2/NC(=O)N(CC(=O)Nc3cccc(C)c3)C2=O)c1C`: the “activity change, negative = decrease” value is inactive: -26.8%.

As for `CN([C@@H](Cc1ccc(OS(=O)(=O)c2cccc3cnccc23)cc1)C(=O)N1CCN(c2ccccc2)CC1)S(=O)(=O)c1cccc2cnccc12`, the “activity change, negative = decrease” value is inactive: -20.5%.

Turning to `COc1cc(N/N=C(\C)c2ccc(O)c(C)c2)nc(-c2ccccc2)n1`, the Potency is active: 8.91 µM [quencher]. Take `C[C@H](Cc1ccc(O)c(O)c1)[C@@H](C)Cc1ccc(O)c(O)c1`: the “activity change, negative = decrease” value was inactive: -3.02%. As to `Cc1ccc2c(c1)c1ccc3c(c1n2C)C(=O)C=CC3=O`, the Potency is active: 0.891 µM [quencher]. Take `O=[N+]([O-])c1ccc(Sc2ncccn2)c([N+](=O)[O-])c1`: the Potency is active: 6.31 µM [quencher]. For `CCCc1nn2c(N)c(/C=C3\C=Nc4ccccc43)c(=O)nc2s1`, the “activity change, negative = decrease” value is inactive: -30%.

Turning to `CCOC(=O)C1=C(C)N=C2c3ccccc3C(=O)C2C1c1ccc(Br)cc1` (configuration not stated), the Potency was active: 11.2 µM [quencher]. With `COc1ccc(Nc2c(-c3ccco3)nc3cccc(C)n23)cc1`, the “activity change, negative = decrease” value is inactive: -25.1%. Regarding `COc1ccc2c(c1)C(=O)[C@@H](OC(=O)NCc1ccc3c(c1)OCO3)[C@H](c1ccc(OC)c(Br)c1)O2`, the “activity change, negative = decrease” value was inactive: -21.3%.

`CN(Cc1cnc2nc(N)nc(N)c2n1)c1ccc(C(=O)NC(CCC(=O)O)C(=O)O)cc1` (configuration not stated): the “activity change, negative = decrease” value is inactive: -8.6%.

With `Cc1cccc(N(C)C(=S)Oc2ccc3ccccc3c2)c1`, the “activity change, negative = decrease” value was inactive: -28.6%. On the same count and under the same terms, next, `COC(=O)CCCC1=CC2=CC(=O)C(C)(OC(=O)c3cccs3)C(=O)C2=CN1c1cccc(C#N)c1` (configuration not stated): inactive: -10.6% [at 11.6 µM].

Turning to `C[C@]1(C(=O)NCCc2c[nH]c3ccccc23)C=C[C@@H](Cc2ccccc2)N1C(=O)c1ccccc1`, the “activity change, negative = decrease” value is inactive: -4.88%. With `COc1cc(NC(=O)CCCSc2nc(-c3ccco3)cc(C(F)(F)F)n2)cc(OC)c1OC`, the “activity change, negative = decrease” value was inactive: 10.6%. In the case of `Cc1nc2sccn2c(=O)c1CCN1CCC(=C(c2ccc(F)cc2)c2ccc(F)cc2)CC1`, the Potency entry is “inactive”. Take `CCC(C)C(=O)Nc1nc(C)c(-c2csc(Nc3cc(Cl)ccc3OC)n2)s1` (configuration not stated): the Potency was active: 12.6 µM [quencher]. Turning to `CCc1cccc(NC(=O)CN(C)S(=O)(=O)c2cccc3cccnc23)c1`, the “activity change, negative = decrease” value is inactive: -16.3%. Take `Clc1ccc(C(c2ccccc2Cl)C(Cl)Cl)cc1` (configuration not stated): the “activity change, negative = decrease” value is inactive: -14.8%. As for `Cc1ccc(S(=O)(=O)OCC2CN3C(CCC(C)C3c3ccc(Br)cc3)C(=O)O2)cc1` (configuration not stated), the activity change, negative = decrease is inactive: -4.02% [at 11.6 µM] and inactive: -13.1% [at 11.6 µM] and inactive: -19.3% [at 11.6 µM]. With `COc1cc(/C=C2\SC(=O)N(c3ccccc3Cl)C2=O)cc([N+](=O)[O-])c1O`, the Potency was active: 15.8 µM [quencher]. In the case of `N[C@H](Cc1ccc(O)c(O)c1)C(=O)O`, the “activity change, negative = decrease” value was inactive: -8.39%. Take `O=C(O)c1ccc(N/N=C/c2ccc(-c3cccc(Cl)c3)o2)cc1`: the Potency was active: 20 µM [quencher]. Take `CN1/C(=C\C(=O)c2cccs2)Sc2ccccc21`: the “activity change, negative = decrease” value is inactive: -20.5%.
